Experimental data: PubChem BioAssay AID686971 (National Center for Advancing Translational Sciences (NCATS), 2013)
About 7,500 (2.1%) of roughly 360,000 compounds were called active. This list was built around the results that the source calls inconclusive (neither active nor inactive); the mix of calls is not that of the screen. Calls follow the shape of the dose curve; as a rule, active = well fitted cell-killing curve with a large enough effect; inconclusive = small, poorly fitted or top-dose-only effect, or effect the other way, or another doubt; inactive = no such curve, though single readings can be large or run the other way. Potencies of inconclusive entries are left out as doubtful fits.

Experiment: qHTS for induction of synthetic lethality in tumor cells producing 2HG: qHTS for the HT-1080-IDH1KD cell line;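 as to activity, negative = toxicity: 0% = DMSO wells and -100% = cell-free medium wells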
Conditions: HT-1080 IDH1 knockdown viability, ATP luminescence, 48 h; activity, negative = toxicity: at 46.1 µM (top of the series) unless noted
In short: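 Cytotoxicity counter-line: IDH1KD HT-1080, 48 h, CellTiter-Glo. Curves classed by r2, magnitude and activity.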
Potency is read from the fitted curve at half-maximal effect; tags tell the direction and shape of the fitted curve.

Row | SMILES | Potency | activity, negative = toxicity
1 | CCOC(=O)C1(CCOc2ccccc2)CCN(Cc2cccc(O)c2)CC1 | inconclusive [cytotoxic, single point] | –
2 | Cc1cc(OC(=O)CCNC(=O)OC(C)(C)C)c2c3c(c(=O)oc2c1)CCC3 | – | inactive: -14.2%
3 | COC1C(C)OC(OC2CC(C)(O)Cc3cc4c(c(O)c32)C(=O)c2c(O)cc3c(c2C4=O)OC2OC3(C)C(O)C(N(C)C)C2O)C(OC)C1(C)OC (stereo not given) | active: 16.4 µM | –
4 | CCn1c(O)c(C(=O)CC2NCCc3ccccc32)c(=O)n(CC)c1=S (stereo not given) | – | inactive: -18.3%
5 | CN1Cc2ccccc2-n2nncc2C1 | – | inactive: 1.23%
6 | COc1cc2c(c(OC)c1OC)-c1ccc(O)c(=O)cc1C(NC(C)=O)CC2 (stereo not given) | active: 0.0411 µM | –
7 | CCOC(=O)c1c(C)n(COCCO)c2ccc(O)cc12 | – | inactive: 12.4%
8 | COC(=O)C1=C(c2ccccc2OCc2ccccc2)C[C@@H]2CC[C@H]1N2C(=O)NCc1ccc(Cl)cc1 | – | inactive: -9.76%
9 | CCCc1cc(-c2n[nH]c(C(=O)OCC)c2-c2cscn2)c(O)cc1O | inconclusive [cytotoxic, single point] | –
10 | O=C(NCCN1CCOCC1)c1ccc(Cl)nc1Cl | – | inactive: -1.75%
11 | CCCCCN1C(=O)c2ccccc2[C@@]2(C(=O)OCC)Cc3cc(OC)ccc3[C@@H]12 | active: 11.6 µM | –
12 | COc1ccc(CNCCc2c(C)[nH]c3ccc(OC(F)(F)F)cc23)c(OC)c1 | active: 23.1 µM | –
13 | CCOC(=O)[C@]12Cc3cc(Cl)ccc3[C@H]1N(C)C(=O)c1cc(OC)ccc12 | inconclusive [cytotoxic, single point] | –
14 | O=c1[nH]c2ccccc2n1C1CCN(C(c2cccs2)c2nnnn2-c2ccc3c(c2)OCCO3)CC1 (stereo not given) | active: 3.26 µM | –
15 | O=C1Nc2ccccc2C1Cc1nc2ccccc2c(=O)n1-c1ccccc1 (stereo not given) | – | inactive: 0.343%
16 | CC(NCc1ccc(Cl)cc1)C(O)c1ccccc1 (stereo not given) | inconclusive [cytotoxic, single point] | –
17 | C[C@]12CC[C@H]3C(CCC4(O)CC(O)CC[C@]34C=O)C1=CC[C@H]2c1ccc(=O)oc1 (stereo not given in full) | active: 5.8 µM | –
18 | CN(C)c1ccc(/C=C/[N+](=O)[O-])cc1 | active: 23.1 µM | –
19 | COCCCNC(=O)Cn1cc(/C=C2\C(=O)NC(=O)N(c3ccccc3F)C2=O)c2ccccc21 | inconclusive [cytotoxic, single point] | –
20 | COc1ccc(CNCCc2c[nH]c3ccccc23)c(OC)c1OC | inconclusive [cytotoxic, single point] | –
21 | COc1ccc(-n2nnnc2C(c2cccc(OC)c2OC)N2CCC(n3c(=O)[nH]c4ccccc43)CC2)cc1 (stereo not given) | inconclusive [cytotoxic, partial curve] | –
22 | COc1ccc2c3c1O[C@H]1C[C@@H](O)C=C[C@@]31CCN(C)C2 | active: 5.8 µM | –
23 | O=C1NCN(c2ccccc2)C12CCN(C(c1ccccc1)c1nnnn1-c1ccc3c(c1)OCCO3)CC2 (stereo not given) | inconclusive [cytotoxic, single point] | –

Row | SMILES | Potency | activity, negative = toxicity
24 | COc1ccccc1N1CCN(Cc2ccc(SC)cc2)CC1 | – | inactive: -2.19%
25 | O=Cc1c(C(=O)O)n(Cc2ccc(Cl)cc2)c2ccccc12 | – | inactive: 11.6%
26 | Cc1ccc(OP(=O)(NC(C)c2ccccc2)Oc2ccc(C)cc2)cc1 (stereo not given) | inconclusive [cytotoxic, single point] | –
27 | C[C@H]1O[C@@H](O[C@H]2[C@@H](O)C[C@H](O[C@H]3[C@@H](O)C[C@H](O[C@H]4CC[C@@]5(C)[C@H](CC[C@@H]6[C@@H]5CC[C@]5(C)[C@@H](C7=CC(=O)OC7)CC[C@]65O)C4)O[C@@H]3C)O[C@@H]2C)C[C@H](O)[C@@H]1O | active: 0.146 µM | –
28 | Cc1cccc(N2CCN(Cc3ccc4c(c3)OCO4)CC2)c1C | inconclusive [cytotoxic, single point] | –
29 | CC(c1ccccc1)(c1ccccc1)c1ccncc1 | inconclusive [cytotoxic, single point] | –
30 | COc1ccc(C(=O)Cn2c(NCCCl)nc3ccccc32)cc1 | – | inactive: -1.51%
31 | CC1CCCCN1CC(O)c1c[nH]c2ccccc12 (stereo not given) | – | inactive: 5.24%
32 | CCNC(=O)C1OC(n2cnc3c(N)ncnc32)C(O)C1O (stereo not given) | inconclusive [rising, partial curve] | –
33 | COc1ccc(C(=O)c2[nH]c(N)c(C(N)=O)c2-c2ccc(OC)c(OC)c2)cc1 | inconclusive [rising, single point] | –
34 | CCCCn1nnnc1C(c1ccnc2ccccc12)N1CCC2(CC1)C(=O)NCN2c1ccccc1 (stereo not given) | – | inactive: -1.42%
35 | Cc1cc(C)c(C(=O)CSc2n[nH]c(=O)n2C2CC2)cc1C | active: 31.6 µM | –
36 | CC(C)CCOP(=O)(c1ccc(N(C)C)cc1)C(O)c1ccc(Cl)cc1Cl (stereo not given) | active: 16.4 µM | –
37 | O=C(c1ccc2c(c1)ncn2C1CCCCCC1)N1CCC2(CC1)OCCO2 | inconclusive [cytotoxic, single point] | –
38 | CC(=O)c1ccc2c(c1)C1C(Cl)C(Sc3ccccc3[N+](=O)[O-])CC1C(c1ccccc1)N2 (stereo not given) | – | inactive: -20.9%
39 | CC(=O)O[C@@]12CO[C@@H]1C[C@@H](O)[C@@]1(C)C(=O)[C@H](O)C3=C(C)[C@@H](OC(=O)[C@H](O)[C@@H](NC(=O)c4ccccc4)c4ccccc4)C[C@@](O)([C@@H](OC(=O)c4ccccc4)C12)C3(C)C (stereo not given in full) | active: 0.013 µM | –
40 | CC(=O)OC1C(O)C(C)OC(OC2C(OC(=O)C3CCC4C(C3)OC3(CC(OC(=O)/C=C/c5ccccc5)C(C)CO3)C43CO3)OC(C)C(O)C2OC(C)=O)C1O (stereo not given) | active: 0.0651 µM | –
41 | CCOC(=O)c1[nH]c2ccc(OC)cc2c1C(SCC(=O)O)c1ccc(C(F)(F)F)cc1 (stereo not given) | inconclusive [cytotoxic, single point] | –
42 | Nc1nonc1C(=O)N/N=C/c1ccc([N+](=O)[O-])o1 | active: 18.4 µM | –
43 | CC1=CC2/C=C(\C)CCC(O)C(O)/C=C/C(=O)C23C(=O)NC(CC(C)C)C3C1C (stereo not given) | active: 7.31 µM | –
44 | CCOc1cc2c(cc1OCC)-n1cccc1C(c1cccc(OCC)c1O)NC2 (stereo not given) | inconclusive [cytotoxic, single point] | –
45 | O=c1[nH]c(=O)n(-c2ccccc2)c(O)c1/C=C1/C(c2ccccc2)=Nc2ccccc21 | active: 2.06 µM | –
